These results are taken from the RNAGym collection of RNA variant scans (doi:10.1073/pnas.2313332121).

Variants at the floor of the assay are shown more often than the library holds them.

Sequences and labels used below:
B1: TPR 5TU (parent)
chain: GGAUCUUCUCGAUCUAACAAAAAAGACAAAUCUGCCACAAAGCUUGAGAGCAUCUUCGGAUGCAGAGGCGGCAGCCUUCGGUGGCGCGAUAGCGCCAACGUUCUCAACUAUGACACGCAAAACGCGUGCUCCGUUGAAUGGAGUUUAUCAUG

Variants of B1 are the subject of this data set. Nature of the data set: polymerase ribozyme fitness, log enrichment relative to wild type (log ratio); higher = more active; in vitro selection for triplet polymerase activity. In a few lines:
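Genotype fitness is the logarithm of its enrichment divided by wild-type enrichment, using inverse-variance-weighted averages of replicates. That logarithm is base 2. Enrichment was measured by Illumina sequencing of input and output libraries from one triplicate in vitro selection round, with frozen incubation at −7 °C, on PCR-built, transcribed mutant libraries of each subunit of a heterodimeric triplet polymerase ribozyme, retaining genotypes with ≥10 input reads and ≥1 read per output.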
GGAUCUUCUCGAUCUAACAACAAAGACAAAUCUGCCACGACGCUUGAGAGCAUCUUCGGAUGCAGAGGCGGCAGCCUUCGGUGGCGCGAUAGCUCCAACGUUCUCAACUAUGACACGCCAAACGCGUGCUCCGUUGAAUGGUGUUUAUCAUG [A21C A39G A41C G94U A119C A142U]: the “polymerase ribozyme fitness (log ratio)” value was ≤ -4.2. For the variant GGAUCUUCUCGAUCUAACAACAGAGACAAAUCUGCCCCAAAGCUUGAGAGCAUCUUCGGAUGCAGAGGCGGCAGCCUUCGGUGGCGCGAUAGCGGCAACGUUCUCAACUAUGACACGCAAAACGCGUGCUCCGUUGAAUGGAGUUUAUCAUG [A21C A23G A37C C95G], the “polymerase ribozyme fitness (log ratio)” value is ≤ -4.2. In the case of GGAUCUUCUCGAUCUAACAACAAAGACAAAUCUGCCACAAAGCUUGAGAGCAUCUUAGGAUGCAGAGGCGGCAGCCUUCGUUGGAGCGAUAGCGCCAACGUUCUCAACUAUGACACGCAAAACGCGUGCUCCGUUGAAGGGAGUUUAUCAUG [A21C C57A G81U C85A U139G] it was -0.214. In the case of GGAUCUUCUCGAUCUAACAACAAUGACAACUCUGCCACAAAGCUUGAGUGCAUCGUCGGAUGCAGAGGCGGCAGCCUUCGGUGGCGCGAUAGCGCCAAUGUUCUCAACUAUGACACGCAAAACGCGUGCUCCGUUGAAUGGAGUUUAUCAUG [A21C A24U A30C A49U U55G C99U] it was ≤ -4.2; in that of GGAUCUUCUCGAUCUAACAACAAAGACAAAUCUGCUACAAAGCUUGAGAGCAUCUACGGAUGCAGAGGCGGCAGCAUUCGGUGGCGCGAUAGAGCCAACGUUCUCAACUAUGACACGCAAAACGCGUGCUCCGUUGAAUGCAGUUUAUCAUG [A21C C36U U56A C76A C93A G141C], ≤ -4.2. As for GGAUCUUCUCGAUCUAACAACAAAGACAAAUGUGCCACAAAGCUUGAGAGCAUCUUCGGAUGCAGAGGCGGCAGCCUUCGGUGGCGCGAUCGUGCCAACGUUCUCAACUAUGACACGCAAAACGCGUGCUCCGUUGAAUGGUGUUUAUCAUG [A21C C32G A91C C93U A142U], the “polymerase ribozyme fitness (log ratio)” value is ≤ -4.2.

On to GGAUCUUCUCGAUCUAACAACUAAGACAAAUCUGCCACAAAGCUUGAGAGCAUCUUCGGAUGCAGAGGCGGCAGCCUUCGGUGGCUCGAUAGCGCCAACGUCCUCAACUAUGACAUGCAAAGCGCGUGCUCCGUUGAUUGGAGUUUAUCAUG [A21C A22U G86U U102C C116U A122G A138U], for which the “polymerase ribozyme fitness (log ratio)” value is ≤ -4.2.

For the variant GGAUCUUCUCGAUCUAACAACAAAGACAAAUCUGCCACAAAGCUUGAGAGCAUCUUCGGUUGCAGAGGCGGCAGCCUUCGGUGGCGCGAUAGCGCCAACGUUCUCAACUAUGACACGCAAAACGCGUGCUCCGUUGAAUGGAGUUUAUCAUG [A21C A60U], the “polymerase ribozyme fitness (log ratio)” value was -0.52.

With GGAUCUUCUCGAUCUAACAACAACGACAAAUCUGCCACAAAGCUUGAGAGCAUCUUCGGAUGCAGAGGCGGCAGCCUUCGGUGCUGCGAUAGCGCCUACGUUCUCAACUAUGACUCGCAAAACGCGUGCUCCUUUGAAUGGAGUUUAGCAUG [A21C A24C G84C C85U A97U A115U G133U U148G], the “polymerase ribozyme fitness (log ratio)” value is ≤ -4.2. The value for GGAUCUUCUCGAUCUAACAACAGAGACAAAUCUGCCACAAAGCUUAAGAGCAUCUUCGGAUGCAGAGGCGGCGGCCUUCGGUGGCGCGAUAGCCCCAACGUUCUCAACUAUAACACGCAAAACGCGUGCUCCGUUGAAUGGAGUUUAUCAUG [A21C A23G G46A A73G G94C G112A] was ≤ -4.2.

GGAUCUUCUCGAUCUAACAACAAAGACAAAUCUGCCUCACAGCUUGAGAGCAUCUUCGGAUGCAGAGGCGGCAGCCUUCGGUGGCGCCAUAGCGCCAACGUUCGCUACUAUGACACGCAAAACGCGUGCUCCGUUGAAUGGAGUUUAUCAUG [A21C A37U A40C G88C U104G A106U]: the “polymerase ribozyme fitness (log ratio)” value is ≤ -4.2.

Regarding GGAUCUUCUCGAUCUAACAACAAUGACAAAUCUGCCAGAAAGCUUGAGAGCAUCUUCGGAUGCAGAGGCGGCAGCCUUCGGUGGCGCGAUAGUGCCAACGUUCUCAACUAUGACACACAAAACGCGUGCUCCGUUGAAUGGAGUUUAUCAUG [A21C A24U C38G C93U G117A], the “polymerase ribozyme fitness (log ratio)” value was -2.15. GGAUCUUCUCGAUCUAACAACAAAGACAAGUCUGCCACUAAGCUUGAGAGCAUCUUCGGAUGCAGAGGCGGCAGCCUUCGGUGGCGCGAUAGAGCCAACGUUCUCAACUAUGACACGCAAAACGCGCGCUCCGUUGAAUGGAGUUUAUCAUG [A21C A30G A39U C93A U127C]: the “polymerase ribozyme fitness (log ratio)” value is ≤ -4.2. For GGAUCUUCUCGAUCUAACAACAAAGACAACUCUGCCACAAUGCUUGAGAGCAUCUUCGGAUGCUGAGGCGGCAGCCUUCGGUGGCGCGAUAGCGCCAACGUUGUCAACUAUGACCCGCCAAACGCGUACUCCUUUGAAUGGAGUUUAUCAUG [A21C A30C A41U A64U C103G A115C A119C G128A G133U], the “polymerase ribozyme fitness (log ratio)” value is ≤ -4.2. In the case of GGAUCUUCUCGAUCUAACAACAAAGACAAAUCUGUCACAAAGCUUGAGAGCAUCUUCGGAUGCAGAGACGCCAGCCUUCGGUGGCGCGAUUGCGCCAACGUUCUCAACUAUGACACGCAAAACGCGUGCUCCGUUGAAUGGAGUUUAUAAGG [A21C C35U G68A G71C A91U C149A U151G] it was ≤ -4.2. In the case of GGAUCUUCUCGAUCUAACAACAAAGACAAAUUUGCCACAAAGCUUGAGAGCAUCUUCGGCUGCAGAGGCGGCAGCCUUCGGUGGCGCGAUAGCGCAAACGUUCUCAACUAUGACACGCAAAACGCGUGCUCCGUUGAAUGGAGUUUAUCAUG [A21C C32U A60C C96A], the “polymerase ribozyme fitness (log ratio)” value is ≤ -4.2. GGAUCUUCUCGAUCUAACAACAAAGACAAAUCUGCCACACAGCUUGAAAGCAUCUUCGGAUGCAGAGGCGGCAGCCUUCGGUGGAGCGAUAGCCCCAACGUUCUCAACUAUGACACGCAAAACGCGUGCUCCGUUGAAUGGAGUUUAUCAUG [A21C A40C G48A C85A G94C]: the “polymerase ribozyme fitness (log ratio)” value is -2.1. In the case of GGAUCUUCUCGAUCUAACAACAAAGACAAAUCUGCCCCAAAGCUUGAGAGCAUCUUCGGAUGCAGAGGCGGCAGCCUUCGGUGACGCGAUAGCGCCAACGUUCUCAACUAUGACACGCAAAACGCGUGCUCCGUUGAAUGGAGUUUAUCAUG [A21C A37C G84A] it was 0.0671; in that of GGAUCUUCUCGAUCUAACAACAAAGACAAAUCUGUCACAAAGCUUGAGAGCAUCUUCGGAUGCAGAGGCGGCAGUCUUCGGUGGCGCGAUACCGCAAACGUUCUCAAUUAUGACACGCAAAACGCGUGCUUCGUUGAAUGGCGUUUAUCAUG [A21C C35U C75U G92C C96A C108U C131U A142C], ≤ -4.2.
